Assay results as given in PubChem BioAssay AID1345082 (National Center for Advancing Translational Sciences (NCATS), 2018).
The whole screen tested about 94,000 compounds, of which about 4,000 (4.3%) were called active. Inconclusive results, whose numbers are uncertain, are shown with a selection of clear calls. Calls come from the whole dose curve; as a rule, active = well fitted inhibition curve with a large enough effect; inconclusive = small, poorly fitted or top-dose-only effect; inactive = no such curve, though single readings can be large or run the other way. Where the call is inconclusive, the potency comes from a doubtful curve fit.

Test: Cytotoxic Profiling in NIH 3T3 Cell Line of Diverse Libraries Using Quantitative High-Throughput Screening; note: nearly all actives have a fitted effect of over 55% in size
Conditions: NIH 3T3 viability, CellTiter-Glo ATP luminescence, 48-72 h; series mostly up to 96.7 µM
In short: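 Luminescent ATP readout (CellTiter-Glo, 10 min RT) after 48 or 72 hr compound exposure of NIH 3T3 cells seeded at 400 cells/well in 1536-well format; quantitative HTS.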
Potency is the fitted concentration of half-maximal effect; tags give direction and shape of the fitted curve.

| Structure (SMILES) | Potency |
| --- | --- |
| O=C1NCCCCCCN(Cc2ccncc2)[C@@H]2CN(C(=O)Nc3ccc4c(c3)OCCO4)CC[C@@H]12 | inconclusive: 79.4 µM [inhibitor, single point] |
| O=C(Cc1ccc(OC(F)(F)F)cc1)N1CCC(c2n[nH]c(=O)n2-c2ccccc2)CC1 | inconclusive: 70.8 µM [inhibitor, single point] |
| C[C@@]1(O)CCN(Cc2ccc(Br)o2)C[C@H]1N1CCCC1 | inconclusive: 70.8 µM [inhibitor, single point] |
| COc1ccc2c(c1)C(COCc1ccc(C(=O)O)cc1)=CC(C)(C)CO2 | inconclusive: 70.8 µM [inhibitor, single point] |
| CC(=O)NC1(C)CCCN(Cc2cc(-c3cccc(C(F)(F)F)c3)cs2)C1 (centres undefined) | inconclusive: 56.2 µM [inhibitor, partial curve, poor fit] |
| COCCN1Cc2cc(F)ccc2N(CC(O)Cc2ccccc2)CCC1=O (centres undefined) | inactive |
| OC1CC(c2cc(N3CCC(Cc4noc(C5CC5)n4)CC3)ncn2)C1 (centres undefined) | inconclusive: 7.08 µM [inhibitor, full curve, poor fit] |
| CCCC(O)CN1CCC(=O)N(Cc2ccccc2)Cc2cc(OC)ccc21 (centres undefined) | inconclusive: 28.2 µM [inhibitor, partial curve, poor fit] |
| CCCn1cnc2c1CN(S(=O)(=O)c1ccccc1)[C@H](C(=O)OC)C2 | inactive |
| CCOC(=O)c1cccc(NC(=O)c2ccc3c(c2)N(CC)C2CCCCCN2C3=O)c1 (centres undefined) | active: 20 µM |
| O=C(c1ccncc1)N1CCC(N2C(=O)C3(CCCC3)C2c2ccccc2)CC1 (centres undefined) | inactive |
| CNC(=O)c1cc(C2CC2)nc2c1c(C1CCCN(C(=O)c3ccccc3Cl)C1)nn2C (centres undefined) | inactive |
| OC[C@@H]1O[C@H](CN(Cc2cccc(Cl)c2)Cc2cccc(Cl)c2)[C@H](N2CCN(c3ccccn3)CC2)[C@@H]1O | inconclusive: 44.7 µM [inhibitor, partial curve, poor fit] |
| O=C(NCc1cccc(C(F)(F)F)c1)c1ccc2nnc(Cc3ccc(Cl)cc3)n2c1 | active: 22.4 µM |
| CCC(C(=O)Nc1ccc2c(c1)CN(Cc1ccccc1Cl)C(=O)C(C)O2)c1ccccc1 (centres undefined) | inconclusive: 39.8 µM [inhibitor, partial curve, poor fit] |
| CNC(=O)CCn1ncc2cc(OCc3ccccc3-c3ccc(OC)cc3)ccc21 | active: 89.1 µM |
| OCCc1ccc(Nc2cnc3ccc(-c4ccc(F)cc4)nn23)cc1 | inconclusive: 39.8 µM [inhibitor, partial curve, poor fit] |
| COCCn1cc2c3c(cccc31)CN(C(=O)CCc1ccccc1OC)CC2 | inconclusive: 56.2 µM [inhibitor, partial curve, poor fit] |
| O=C(Nc1ccc(Cl)cc1)[C@@H]1COCC(=O)N1Cc1ccc(F)cc1 | inconclusive: 44.7 µM [inhibitor, partial curve, poor fit] |
| COc1ccc(CNC(=O)C[C@@H]2CCNC[C@@H]2Cc2cc(-c3ccc(OC)cc3)on2)cc1 | inconclusive: 56.2 µM [inhibitor, partial curve, poor fit] |
| O=C1COc2ccc(Nc3ccc(C(F)(F)F)cc3)nc2CN1 | inconclusive: 70.8 µM [inhibitor, partial curve] |
| Fc1ccc(NC2CCCN(Cc3ccc(C#Cc4cncnc4)cc3)C2)cc1F (centres undefined) | inconclusive: 63.1 µM [inhibitor, partial curve, poor fit] |

| Structure (SMILES) | Potency |
| --- | --- |
| CCOCCNC(=O)c1ccc2nnc(C3CCOCC3)n2c1 | inactive |
| N#CC1CCN(C(=O)C2CCN(c3nccc(Nc4ccccc4F)n3)CC2)CC1 | inconclusive: 44.7 µM [inhibitor, partial curve, poor fit] |
| COCCc1noc(-c2ccccc2OC2CN(C(=O)c3ccccc3OC)C2)n1 | inactive |
| CCS(=O)(=O)N(C1CC1)C1CCOC2(CCN(C(=O)CCCc3ccccc3)CC2)C1 (centres undefined) | inactive |
| CCc1nnc2ccc(NCc3ccccc3)nn12 | inconclusive: 44.7 µM [inhibitor, partial curve, poor fit] |
| Cc1ccc(CNC(=O)N2CCc3nc(-c4ccccc4)[nH]c3C2)cc1 | inconclusive: 44.7 µM [inhibitor, partial curve, poor fit] |
| Cc1ccc(C(=O)NC2CCN(C(=O)c3cc4c(=O)[nH]c(C)cn4n3)CC2)cc1 | inactive |
| O=C(NCCNC(=O)c1cccc(-c2ccsc2)c1)c1ccc(Cl)nc1 | inactive |
| CC(C)c1ccc(NC(=O)C2CCN(c3cc(C(F)(F)F)ncn3)CC2)cc1 | inconclusive: 50.1 µM [inhibitor, partial curve, poor fit] |
| COc1ccc(-c2ccc(C(=O)N3CCN(Cc4ccccc4)CC3)cc2)nn1 | inactive |
| COC(=O)[C@@H]1Cc2ncn(C)c2CN1C(=O)c1ccc(-c2ccccc2)cc1 | inactive |
| O=C(c1ccccc1OC1CN(Cc2ccc(F)c(F)c2)C1)N1CCOCC1 | inactive |
| CCN(CC)C(=O)N1CC(Oc2ccc(-c3nc(C)no3)cc2)C1 | inconclusive: 35.5 µM [inhibitor, partial curve, poor fit] |
| CCN(Cc1cnn(CC)c1)C(=O)CN1C(=O)C2(CCCCC2)C1c1ccccc1 (centres undefined) | inconclusive: 50.1 µM [inhibitor, partial curve, poor fit] |
| Cc1ccc(NC(=O)c2cc(-c3ccc[nH]3)n[nH]2)cc1 | inactive |
| Cc1ncccc1C(=O)N1CC(N(CC(C)C)C2CCN(C)CC2)C1 | inactive |
| O=C1Nc2ccc(-c3ccccc3F)cc2C(=O)N2CC[C@H](NS(=O)(=O)c3cccs3)[C@@H]12 | inconclusive: 89.1 µM [inhibitor, partial curve, poor fit] |
| Cc1onc(-c2cnn(C)c2NCCc2ccccc2)c1C(=O)NCc1ccccc1 | inconclusive: 89.1 µM [inhibitor, partial curve] |
| CN(C)c1nc2c(c(=O)[nH]1)CCN(Cc1cccc(Cl)c1F)CC2 | inconclusive: 35.5 µM [inhibitor, partial curve, poor fit] |
| O=[S+]([O-])(NC1CCN(Cc2cccc(-c3ccc(F)c(F)c3)c2)CC1)c1ccccc1 | active: 20 µM |
| O=C(C1CC1)N1CCCN(C(=O)C2(c3ccccc3)CC2)c2ccccc21 | inconclusive: 70.8 µM [inhibitor, partial curve, poor fit] |
| COc1ccc(C(=O)NC2CCN(c3cc(-c4ccc(Cl)cc4)[nH]n3)C2)cc1 (centres undefined) | inconclusive: 50.1 µM [inhibitor, partial curve, poor fit] |

| Structure (SMILES) | Potency |
| --- | --- |
| COC[C@H]1NC(=O)CC[C@H]1C(=O)NCCCc1ccccc1 | inconclusive: 44.7 µM [inhibitor, partial curve, poor fit] |
| Cc1ccc(F)c(OC2(C(=O)O)CCN(Cc3cccc(C)n3)CC2)c1 | inactive |
| CN1CCN(Cc2ccc(-c3cnc4c(OCc5ccccc5)nccn34)cc2)CC1 | inconclusive: 44.7 µM [inhibitor, partial curve, poor fit] |
| COc1ccccc1-c1cccc(C(=O)N2CCC[C@H]2C(=O)NCCc2ccc(F)cc2)c1 | inconclusive: 50.1 µM [inhibitor, partial curve, poor fit] |
| Cc1noc(C)c1C(=O)N1CCC2(CC1)CC(c1ccccc1)C(=O)N2C (centres undefined) | inactive |
| COc1cccc2sc(NC(=O)c3ccc4c(c3)OCCN(C3CCC3)C4)nc12 | inconclusive: 56.2 µM [inhibitor, partial curve, poor fit] |
| CCC(=O)N1CCc2c(C(=O)Nc3ccc(N4CCOCC4)cc3)cccc21 | inactive |
| Cc1cc(C)cc(-c2nc(C3CC(=O)N(c4ccc(F)cc4)C3)no2)c1 (centres undefined) | inconclusive: 50.1 µM [inhibitor, partial curve, poor fit] |
| CN1CCCC(CN(C)C(=O)c2cc(-c3cnn(CCO)c3)nc3ccccc23)C1 (centres undefined) | inactive |
| N#Cc1cccnc1N1CCC(NC(=O)c2ccc3nccn3c2)CC1 | inactive |
| COC(=O)NC1CCCN(Cc2ccc(-c3cccc(OC)c3)cc2)C1 (centres undefined) | inconclusive: 50.1 µM [inhibitor, partial curve, poor fit] |
| COc1ccc(C)cc1NC(=O)Nc1cccc(-c2ccc(N3CCCCC3)nn2)c1 | inconclusive: 39.8 µM [inhibitor, partial curve, poor fit] |
| O=C(Nc1cccc(-c2nnc3n2CCCC3)c1)c1nccc2ccccc12 | inconclusive: 70.8 µM [inhibitor, partial curve, poor fit] |
| Cc1ccc(CN2CCC3OCCN(Cc4ccccc4)C(=O)C3C2)o1 (centres undefined) | inconclusive: 100 µM [inhibitor, single point] |
| CC(C)c1ccc(CN2CC(CN[S+](=O)([O-])c3ccccc3)C3(C2)CN(c2ccccc2)C3)cc1 (centres undefined) | active: 39.8 µM |
| CCc1cccc(NC(=O)CCC2CCN(C(=O)c3ccccc3)CC2)c1 | inconclusive: 50.1 µM [inhibitor, partial curve, poor fit] |
| Cc1ccccc1N(C)C1CN(C(=O)c2ccc3c(c2)OCO3)C1 | inconclusive: 31.6 µM [inhibitor, partial curve] |
| COc1ccccc1CC(=O)N1CCC2(CC1)N=C(c1cccc(Br)c1)NO2 | inconclusive: 50.1 µM [inhibitor, partial curve, poor fit] |
| C[S+](=O)([O-])CCn1ncc2cc(OCc3cccc(-c4ccc(Cl)cc4)c3)ccc21 | inconclusive: 20 µM [inhibitor, full curve, poor fit] |
| COc1cccc(-c2ccc(C(=O)N3CCC(C(=O)NC4CCCCC4)CC3)cc2)c1 | inconclusive: 50.1 µM [inhibitor, partial curve, poor fit] |
